This is an account of results in the RNAGym collection of RNA variant scans (doi:10.7554/elife.90254).

To fix the notation:
B1: LINE1-mini (parent)
chain: GGCAGAGCUCAACACAGCGUGGCAAAGUGGCUGUGGCUAGACUGCC

Read counts are not given, so values of variants with three or more changes are uncertain.

The data set covers variants of B1. Nature of the data set: self-cleavage, relative activity (ratio to wild type); higher = more cleavage; in vitro, sequencing; the parent is a self-cleaving ribozyme.
Take GGCAGAGCACAACACAGCCUGGAAAAGUGGCCGUGGCAAGACUGCC [U9A G19C C23A U32C U38A]: the self-cleavage stood at 0.01.
As for GGCAGAGCACAACACAGCGUGGCAAACAGGCUGUGGGUACACUGCG [U9A G27C U28A C37G G40C C46G], the self-cleavage turned out to be 0.
To GGCAGAGCCCAACAGAGGGUGGCAAAGUGGCUGUGGCUAGACUGAC [U9C C15G C18G C45A] belongs 0.01; to GGCAGAGCACAACACAGCGUGGCAAAGUGGUUGUGGCUAGCCUGCC [U9A C31U A41C], 0.04; to GGCAGAGCACAACACAGCGUGGCAAAGUGGCUGUGGAUAGACUGGC [U9A C37A C45G], 0.11.
GGCAGAGCACAACACAGCGUGUCAAAGUGUCUGUGGCUAGACUGCC [U9A G22U G30U]: the self-cleavage stood at 0.25.
As for GGCAGAGCACAACACAACGUGGCAAAGUGGCUGUGGUUAGACUGCC [U9A G17A C37U], the self-cleavage turned out to be 0.03.
GGCAGAGCACAACACAGCUUGGCAAAGUGGCUGUGGGUAGACUGCC [U9A G19U C37G]: the self-cleavage was found to be 0.04.
To GGCAGAGCACAACACAGCGCGGCAAGGUGGCUGUGGCUAGACUGCC [U9A U20C A26G] belongs 0.08; to GGCAGAGCACAACACAGCGUGGCAAAGUGGUUGUCUAUACACUGCC [U9A C31U G35C G36U C37A G40C], 0.06.
Consider GGCAGAGCACAACACAGCGUGGCAAAGUGGCUGUGGUAAGACUGCC [U9A C37U U38A], for which the self-cleavage was determined as 0.32.
Then GGCAGAGCACAACACAGCGUGGCAAACCUGCUGUGGCUAGACUGCA [U9A G27C U28C G29U C46A], with 0.02.
Then GGCAGAGCCCAGCCCAGAGUGGCUAAGUGUCUGUGGAUAGACUGCC [U9C A12G A14C C18A A24U G30U C37A], with 0.03; and GGCAGAGCACAACACAGCCUGGCAAAGUGGCUGUGGCUAGACUGCG [U9A G19C C46G], with 0.18.
For GGCAGAGCCCACAACAGCGUGGCAAAGUGGGUGUGGCUAGACUGCC [U9C A12C C13A C31G], the self-cleavage came out at 0.04.
Then GGCAGAGCACAACACAGCGUGGCAAAGGGGCUGUGGCUAGAUUGCC [U9A U28G C42U], with 0.04; and GGCAGAGCCCAACCCAGCGUGGCAAAGUGGCCGUGGCUAGACUGCC [U9C A14C U32C], with 0.03; and GGCAGAGCCCAACGCAUAGCGUCAAAGUGGCUGUGGCUAGACUGCC [U9C A14G G17U C18A U20C G22U], with 0.01.
Then GGCAGAGCCCAAUACAGCGCGGCAAAGUGGAUGUGGCUAGACUGCC [U9C C13U U20C C31A], with 0.04.
Regarding GGCAGAGCCCAACACAGCGUGGCACAGUGGCCGUGCCUAGAUAGCC [U9C A25C U32C G36C C42U U43A], the self-cleavage was determined as 0.01.
Turning to GGCAGAGCCCAACAAAGGGUGGUAAAGUGGCUGUGGCUAGACUGCC [U9C C15A C18G C23U], the self-cleavage stood at 0.03.
Then GGCAGAGCACAACACAGCGUGGCAAAGUGGCAGUAGAUAUACUGCC [U9A U32A G35A C37A G40U], with 0.18.
Then GGCAGAGCCUAACACAGCGUGGCAAACUGGCUGUGGCAAGACUGCC [U9C C10U G27C U38A], with 0.01; and GGCAGAGCACAACACAACGUUGCAAAGUGGCUGUGGCUAGACUGCC [U9A G17A G21U], with 0.08; and GGCAGAGCACAACACAGCGUGGGAAAGUGCCUGUGGCUAGACUGCC [U9A C23G G30C], with 0.03.
Regarding GGCAGAGCACAACACAGCGUGGCAAAGUGGGUGUGGCUAGAUUGCC [U9A C31G C42U], the self-cleavage is 0.05.
To GGCAGAGCCUAUCACCGCGUGGCGAAGUGGCUGUGGCUAGACUGCC [U9C C10U A12U A16C A24G] belongs 0.01.
Regarding GGCAGAGCCCAACACAGCGUGGCAAAGUGGCUGUGGCUAGCGUGCC [U9C A41C C42G], the self-cleavage worked out at 0.01.
To GGCAGAGCACAACACAGCGUGGCAAAGUGGUGGUGGCUAGACUGCC [U9A C31U U32G] belongs 0.16.
For the variant GGCAGAGCCCAACACCGCGUGGCAAAGUGGCUGUGGCUAGAUUGCC [U9C A16C C42U], the self-cleavage is 0.01.
Consider GGCAGAGCACAACACAGCGUGGUAAAGUGGCUGUGGCUAGACUAGC [U9A C23U G44A C45G], for which the self-cleavage came out at 0.33.
As for GGCAGAGCACAACACAGUCUGGCAAAGAGGCUGUGGCUAUACUGCC [U9A C18U G19C U28A G40U], the self-cleavage stood at 0.05.
As to GGCAGAGCCGGACACAGCGUGGGAAAGUGGCUGUGGCUAGACUGCC [U9C C10G A11G C23G], the self-cleavage was found to be 0.01.
Take GGCAGAGCACAACACAGCUUGGCAAAGUGGCUGUGGCUAGACUGGC [U9A G19U C45G]: the self-cleavage was determined as 0.29.
To GGCAGAGCACAACACAGCGUGUCAAAUUGGCUGUCACUAGACUCCC [U9A G22U G27U G35C G36A G44C] belongs 0.13; to GGCAGAGCACAACACAGCGUGGCAAAGUUGCUGUGGCUUGACUGCC [U9A G29U A39U], 0.41; to GGCAGAGCCCAACAACGCGUGGUAAAGUGGCUGUGGCUAGACUGCC [U9C C15A A16C C23U], 0.04.
To GGCAGAGCCCAACACGGCGUGGCAAAGUGGCUGUGGCUACACUGCC [U9C A16G G40C] belongs 0.01; to GGCAGAGCACAACACAGCUUGGCAAAGUGGCUCUGGCGAGACUACC [U9A G19U G33C U38G G44A], 0.02.
Take GGCAGAGCACAACACAGCGUGGCAAACUGGCUGUGCCUAGACUGCC [U9A G27C G36C]: the self-cleavage stood at 0.17.
Turning to GGCAGAGCCCGACACAGCGUGGCAAAGUGGCUGUGGCUAUACUGGC [U9C A11G G40U C45G], the self-cleavage amounted to 0.01.
Turning to GGCAGAGCCCAACACAGCGUGGCUAAGUGGCUGUGGCUAGACUGAC [U9C A24U C45A], the self-cleavage turned out to be 0.01.
Turning to GGCAGAGCCCAAAAAAGCGUGGCAAAGUGGCUGUGGCUAGACUGCC [U9C C13A C15A], the self-cleavage worked out at 0.02.
Then GGCAGAGCCCAAUACUGCGUGGCAAAGUGGCUGUCGCUAGACUGCC [U9C C13U A16U G35C], with 0.02; and GGCAGAGCACAACACAGCGUGGCAAAGUGGCUGUGGCUAGAGGGCC [U9A C42G U43G], with 0.18.
Then GGCAGAGCCCAACACAGCGUGGCAACGUGGCUGUAGCUGGACUGCC [U9C A26C G35A A39G], with 0.01.
Regarding GGCAGAGCACAACACAACGUGGCAAAGUGCCGGUGCCUAGACUGCC [U9A G17A G30C U32G G36C], the self-cleavage turned out to be 0.02.
For the variant GGCAGAGCACAACACAGCGUGGCAAAGUGGCUGUGGCUAACUUGCC [U9A G40A A41C C42U], the self-cleavage is 0.15.
As for GGCAGAGCACAACACAACGUGGUCAAGUGGCUGUGGCAAGACUGCC [U9A G17A C23U A24C U38A], the self-cleavage came to 0.1.
As to GGCAGAGCCCAACUCAGCGUGGCAAAGUGGUUGUGGCUAGACUGCC [U9C A14U C31U], the self-cleavage turned out to be 0.03.
On to GGCAGAGCACAACACAACGUGGCAAACUGGCUGUGGCUAGACUGCC [U9A G17A G27C], for which the self-cleavage was 0.06.
As to GGCAGAGCCCAAUACAGCGUGGCAUAGUGGCUGUGGCUAGACUGCC [U9C C13U A25U], the self-cleavage was found to be 0.05.
Then GGCAGAGCACAACACAGCGUGGCAAAGUGGCGGUAGCUAGACUGCC [U9A U32G G35A], with 0.22; and GGCAGAGCACAACACAGCAUGGCAAAGUGCCUGUGGCUAGACUGCC [U9A G19A G30C], with 0.06.
As to GGCAGAGCCCAAGACAGCGUGGCAAAGUGGCUGUCGAUAGACUGCC [U9C C13G G35C C37A], the self-cleavage turned out to be 0.
Then GGCAGAGCCCAACCCAGCGUGGCAAAGUGGCUGGGGCUAGACUGCC [U9C A14C U34G], with 0.01.
